Some of the results follow.
Test system: PF3D7_0420300 AP2 domain 1 (GST-tagged)
Test: gcPBM binding intensity (ln(normalized median fluorescence intensity)); higher = stronger DNA binding
In short: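 An Agilent 4 × 180k array carrying primer-extended double-stranded 36-bp intergenic genomic probes and negative controls received GST-tagged P. falciparum DNA-binding domains expressed in E. coli, about 25 μg on average, for 1 h. The binding buffer contained 1× PBS, 1% milk, 0.2 mg/ml BSA, 0.5% salmon testes DNA and 0.03% Triton X-100. Binding intensity is the top Masliner-normalised natural-log median intensity across replicate spots of either probe orientation, read after Alexa488 anti-GST antibody staining and a 488 nm scan.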

Sequence | gcPBM binding intensity (ln)
CTATGCATTTATAGTGCATGTAAAATATAAGATAAT [TGCATGCA_site71] | 9.22
TATAATTAATTAGAAGTGCATTAGGTAACAACTGTC [GTGCAC_site9746] | 9.39
AACTATATATATAATTCACACATGTTTTAAAATTTT [CACACA_site4971] | 9.38
AACGCAGTTTAATATACACACCAAAAAAAAAAAAAG [CACACA_site5643] | 9.45
ATATATTCTTATTGCTGTACACATATTTTCTAAAAA [XGTACX_site4851] | 9.28
TTTCCTTTTTTAATATGTACACATATTATTATATCT [XGTACX_site3079] | 9.45
AAAAATATAATATAATGTACACATAAACAAAAAAAA [XGTACX_site3658] | 9.58
TAACCACAAAAATAAAATCAAAAAAAAAAAAAAAAA [CACACA_negctrl_site1727] | 8.34
TTTCTTAAATATATGCGTACTCAAAATTGTTCTACA [XGTACX_site7995] | 8.86
AACAGACATACATACACACATACATACAGACATACA [CACACA_site1942] | 9.9
TAAAATAAAACAAACACACACACACCGACACAAAAA [CACACA_site5993] | 10.2
ATATATATATATTTCGCACACATAATCTTATTAAAT [CACACA_site2579] | 9.4
ACATTCTATACATACACACCCACACCCAAAAAAAAA [CACACA_site863] | 9.7
TATATATCAATATACACACACACATATTTATTTATA [CACACA_site6858] | 10.1
CGTAAATTTTTCTAAGTGCATGTTAATTTTTCAATT | 9.28
TAAATACCTATATGGCGTACTATTATCATAGTATAT [XGTACX_site5423] | 9.32
TATTTATTATGATACTCATATTATTCTATGATTAAA [GTGCAC_negctrl_site486] | 9.04
ATTTTCAAATTAAAATGTACAAATGAAAGAAAGGGA [XGTACX_site7048] | 9.36
GTGAATCCTAAGTGTACACATCTTACAGATATATAT [CACACA_site4836] | 9.4
TGAAATAAAATTTGTACACACATATATATATATATA [CACACA_site586] | 9.37
GCACAAATCATCAAATGTACAGAAAATGCTGTCAAT [XGTACX_site5037] | 9.14
ATATAGGTATAATACACACACTAATATGTAACTGTA [CACACA_site7011] | 9.72

Sequence | gcPBM binding intensity (ln)
TTCCTTCATTGGAAAAGTACACAATATTGTCGTTTA [XGTACX_site8057] | 9.24
TATGATATGTATGGAAGTACGAAGAGGGATGATCAG [XGTACX_site1677] | 9.35
TTAAAAATAAAACAAAGTACTCAAGTTATTGTCTTT [XGTACX_site1584] | 9.15
CACGCATACAGACACACACACACACCCATATATATA [CACACA_site636] | 10.2
AATATATTTTTTTTTGGTACACAAGCACATCTATAC [XGTACX_site2183] | 9.19
TTTCGATTATGTTTTTGTACGCAATATATTAATTCT [XGTACX_site3634] | 9.39
AATGTGCAGAAAAGTGGTACATATGATTGTTAAGAG [XGTACX_site1038] | 9.46
CCATGATTATTAGATTGTACATAACATACAAATTGA [XGTACX_site314] | 9.07
ATGTCATATATATGTTGTACGAGTTTGTTTATGTAT [XGTACX_site1150] | 9.73
AGTTTACATTAAATCACGCACACAAAAAAAAAAAAA [CACACA_site2419] | 9.3
TTCATTTTATAAAAAGCACACATATAGTTATATGCA [CACACA_site9228] | 8.97
TACCTTTTTTATGTTGCACACTGGGATGTTTTCTAA [CACACA_site1653] | 9.68
ATTCATATTTTTCAAGTGCGCATTAAAATATTAACC [GTGCAC_site9741] | 9.17
TTATTACGAACTCTGCAACATATATAAATAAATAAA [CACACA_negctrl_site44] | 8.86
AAAATAATATTTAATACACACATAATTACAATATAA [CACACA_site6510] | 9.54
TACGTATTCATGTATAGTACTCTTTTTTTTAATAAA [XGTACX_site3299] | 9.01
AAAGATAAAATATATACACACACATAAATACGTACA [CACACA_site8275] | 10.1
GAATAAATTAAATTCACACATAAAATACAAAATACA [CACACA_site5495] | 9.54
ATTATATTTGAATGGTGTACTATAATAATGTAGTTT [XGTACX_site8069] | 9.42
ACATATATATATATATAAATATATATGTATGTATTT [XGTACX_negctrl_site237] | 9.14
CATACACGCGGACACACACACACACGCATATATAAC [CACACA_site6427] | 10.4
CTTATATTAATTATTACACACATATATATAAATGCA [CACACA_site770] | 9.41

Source: the supplement of paper PMC11417369
